Measured values published in article PMC4336329 (PLoS ONE, 2015).
Among all 310,000 compounds or so, about 14,000 (4.5%) showed an effect of 50% or more. The effect is printed as a negative number. The list shows a part of the results.

Biological target: human ether-à-go-go-related gene (hERG) potassium channel (human, UniProt Q12809)
Assay: primary screen, population patch clamp on CHO cells stably expressing hERG
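Further: peak tail current of the secondary pulse compared with the same well before compound.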

human ether-à-go-go-related gene (hERG) potassium channel, sequence (Q12809 whole entry, looked up): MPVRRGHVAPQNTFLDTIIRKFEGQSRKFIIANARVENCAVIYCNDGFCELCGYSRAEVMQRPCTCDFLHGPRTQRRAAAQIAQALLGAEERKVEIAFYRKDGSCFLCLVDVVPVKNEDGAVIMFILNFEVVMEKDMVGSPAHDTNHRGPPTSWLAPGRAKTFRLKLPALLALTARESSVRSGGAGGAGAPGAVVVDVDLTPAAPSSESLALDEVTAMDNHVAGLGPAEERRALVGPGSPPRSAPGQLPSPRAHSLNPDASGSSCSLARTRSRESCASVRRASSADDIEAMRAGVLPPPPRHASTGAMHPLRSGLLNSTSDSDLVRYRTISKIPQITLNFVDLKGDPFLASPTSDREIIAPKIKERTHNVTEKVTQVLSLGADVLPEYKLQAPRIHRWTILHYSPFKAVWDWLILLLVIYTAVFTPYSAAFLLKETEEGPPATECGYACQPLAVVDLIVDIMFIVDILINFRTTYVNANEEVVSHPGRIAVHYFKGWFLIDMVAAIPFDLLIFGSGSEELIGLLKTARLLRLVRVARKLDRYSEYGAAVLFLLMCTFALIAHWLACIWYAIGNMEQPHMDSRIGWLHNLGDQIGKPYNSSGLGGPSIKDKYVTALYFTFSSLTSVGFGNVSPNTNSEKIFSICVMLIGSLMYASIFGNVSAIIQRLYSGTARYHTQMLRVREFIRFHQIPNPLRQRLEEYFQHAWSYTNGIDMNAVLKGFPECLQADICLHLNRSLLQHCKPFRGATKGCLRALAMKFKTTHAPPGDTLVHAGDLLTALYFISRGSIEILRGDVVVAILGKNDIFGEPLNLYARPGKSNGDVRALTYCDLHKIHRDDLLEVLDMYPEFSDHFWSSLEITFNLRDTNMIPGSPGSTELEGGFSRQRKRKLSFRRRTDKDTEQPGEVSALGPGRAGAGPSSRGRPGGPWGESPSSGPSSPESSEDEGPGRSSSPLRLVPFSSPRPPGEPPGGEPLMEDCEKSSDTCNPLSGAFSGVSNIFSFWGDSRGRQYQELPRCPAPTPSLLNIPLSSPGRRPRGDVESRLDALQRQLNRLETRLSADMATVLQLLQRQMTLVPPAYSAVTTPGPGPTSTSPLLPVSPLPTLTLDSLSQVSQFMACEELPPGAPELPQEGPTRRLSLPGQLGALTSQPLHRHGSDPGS

Compound	hERG current change (%, negative = inhibition) at 10uM [%]
NC(=O)c1ccc(NC(=O)CSC2=Nc3ccccc3C3CC=NN23)cc1 (stereo not drawn)	6.79
Cc1oncc1C(=O)NC(C)C	-3.53
CC1=Nn2c(nnc2-c2ccccc2)SC1	1.57
O=c1cc[nH]c2c1ccc1cccnc12	21.5
O=C(Nc1ccc(S(=O)(=O)Nc2ncccn2)cc1)c1ccccc1	16.6
Cc1csc2nc(CNC(=O)C3CC=CCC3C(=O)O)cn12 (stereo not drawn)	18.9
COc1ccc2nc(SCC(=O)O)nc(C)c2c1	5.94
NS(=O)(=O)c1ccc(CCNS(=O)(=O)c2ccc3c(c2)NC(=O)CO3)cc1	14.8
CCN(CC)CCN(Cc1cc2cc(C)ccc2[nH]c1=O)C(=S)Nc1ccccc1	-50.6
CCN(CC)CCN(C(=O)c1ccc2c(c1)OCCO2)c1nc2cc3c(cc2s1)OCO3.Cl	-67.3
O=C1NC2(CCCCC2)CO1	16.1
CCCCn1c(=NC(=O)c2cccnc2)c(C#N)cc2c(=O)n3cccc(C)c3nc21	-10.6
COc1ccc(C(C)NC(=O)CC23CC4CC(CC(C4)C2)C3)cc1 (stereo not drawn)	-28.9
CC1Cc2cc(S(=O)(=O)N3CCC(C(=O)Nc4ccccn4)CC3)ccc2N1C(=O)C1CCC1 (stereo not drawn)	-10.5
CCN(CC)C(=O)C(=O)c1cn(CC(=O)N2CCc3ccccc3C2)c2ccccc12	-14.4
CC(=O)OC1CC(C)(C)N(OC(=O)c2ccc(N)cc2)C(C)(C)C1	-4.68
O=c1c2sccc2nc(SCc2cc(=O)n3cc(Br)ccc3n2)n1Cc1ccccn1	-42.4
Brc1cc2c(cc1Cn1c(-c3cncs3)nc3ccccc31)OCO2	23.1
O=C(OCn1nnc2ccccc2c1=O)C1CCN(S(=O)(=O)c2cccs2)CC1	-17.9
O=C(NCCSCc1ccc(Cl)cc1Cl)c1ccc(CN2CCOCC2)cc1	-54.6
CCc1nnc(NC(=O)CN2CCN(CC)CC2)s1	6.9
CC(=O)NCCC(=O)Nc1sc2c(c1-c1nc3ccccc3[nH]1)CCCC2	1.92
CNC(=O)C(C)Sc1ccc(S(=O)(=O)N2CCOCC2)cn1 (stereo not drawn)	-0.356

Compound	hERG current change (%, negative = inhibition) at 10uM [%]
O=C(Cn1c(=O)oc2ccccc21)N1CCN(c2ccccc2)CC1	4.02
Clc1ccc(OCCn2ccnc2)c(Cl)c1	-18.9
Br.O=C(CSc1nc2ccccc2c(=O)n1-c1ccccc1)c1cccc([N+](=O)[O-])c1	-7.38
CCOC(=O)c1nn(-c2ccc(F)cc2)c(=O)cc1OCC(=O)N1CCN(c2ccccc2)CC1	-15.6
O=C(c1ccccc1)c1ccc(C(=O)N2CCOCC2)cc1	0.571
O=C(NC1CCN(Cc2ccccc2)CC1)c1ccccc1F	-23.7
COC(C/C=C\C(=O)[C@H](C)OCc1ccccc1)OC	9.66
COc1ccc(-n2c(SCC(=O)NCC3CCCO3)nc3c(c2=O)SCC3)cc1 (stereo not drawn)	-2.34
COc1ccc2nc(SCC(=O)N3CCNC3=O)[nH]c2c1	-9.35
O=C(O)c1ccc(NC(=O)C2(c3ccccc3)CCCC2)cc1	-0.0708
CC(C)[C@H](NC(=O)c1ccco1)C(=O)N(C)Cc1ccc(C(F)(F)F)cc1	-5.29
Cc1ccc2cc(CN(CC(C)C)C(=O)C3CCCO3)c(=O)[nH]c2c1 (stereo not drawn)	-16.2
CCC(CC)NC(=O)c1n[nH]c(=O)c2ccccc12	14.5
COCCN(C(=O)COC(=O)/C=C/c1ccccc1Cl)c1c(N)n(Cc2ccccc2)c(=O)[nH]c1=O	16.1
Cc1ccnc(NC2(C(F)(F)F)N=C3SCCN3C2=O)c1 (stereo not drawn)	-0.201
S=C(NCCc1ccccc1)NCc1cccs1	2.6
COc1cc(OC)c(NS(=O)(=O)c2ccc3c(c2)NC(=O)CO3)cc1Cl	-6.04
CC(=NCCc1ccccc1)C1=C(O)C(c2ccccc2)OC1=O (stereo not drawn)	5.96
CC(=O)c1c(C)cc(C)c(CSc2nnc(-c3ccco3)o2)c1C	-32
CCOC1(/N=C(\C)NS(=O)(=O)c2ccc(Cl)cc2)C(C)=CC(=O)C=C1C	25.2
Cc1csc2sc(-c3ccnc(SCC(=O)NCc4ccccc4)n3)c(C)c12	13.3
Cc1cc(SCC(=O)N2CCN(C(=O)c3ccco3)CC2)c(C)cc1Br	-62.3
